{"source": "the supplement of paper PMC11417369", "note": "± gives the standard deviation of the averaged measurements. The list shows a part of the results."}
{"tested_on": "PfAP2-G AP2 domain (GST-tagged)", "experiment": "gcPBM binding intensity (ln(normalized median fluorescence intensity)); higher = stronger DNA binding", "outline": "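DNA-binding domains from P. falciparum, fused to GST and produced in E. coli, were put on an Agilent 4 × 180k double-stranded probe array for 1 h in 1× PBS holding 1% milk, 0.2 mg/ml BSA, 0.5% salmon testes DNA and 0.03% Triton X-100. Probes were primer-extended, 36 bp long and drawn from intergenic genomic regions, with negative controls included. After Alexa488 anti-GST antibody detection and a 488 nm scan, binding intensity was set as the highest Masliner-normalised natural-log median intensity across replicate spots of either probe orientation.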"}
{"sequence": "CCTCCATTAGATACTTGTACATAAAAGTTTTGATTG [XGTACX_site7428]", "gcPBM binding intensity (ln)": "11.1 ± 0.61"}
{"sequence": "ATTTTATTAATTTGGTGTACTTAATTTATATTTTTC [XGTACX_site4947]", "gcPBM binding intensity (ln)": "11.6 ± 0.92"}
{"sequence": "AAAAAAAAAAAATAATAAATAAATAAAAATAAATGA [CACACA_negctrl_site1623]", "gcPBM binding intensity (ln)": "9.33 ± 0.23"}
{"sequence": "TTTTAATTTTAAAAATGTACTTTTATTATTTTTAAT [XGTACX_site8300]", "gcPBM binding intensity (ln)": "11.2 ± 0.91"}
{"sequence": "TGTAGTCTGGAGAAAAGTACATAGTATCTGGTAACA [XGTACX_site4940]", "gcPBM binding intensity (ln)": "11.3 ± 0.6"}
{"sequence": "GTATATATATATATATATATAATAGTAACTTTTACT [CACACA_negctrl_site608]", "gcPBM binding intensity (ln)": "9.755 ± 0.021"}
{"sequence": "TATTATATGTAGTTGAGTACATATAAATACATATAT [XGTACX_site7933]", "gcPBM binding intensity (ln)": "11.5 ± 0.9"}
{"sequence": "AAATAGTTAAAAAGGCGTACACATAAATAAATAAAT [XGTACX_site2096]", "gcPBM binding intensity (ln)": "11.7 ± 0.81"}
{"sequence": "AATCTAATATAATGCACACATAAAAAAAAATCAAAC [CACACA_site3633]", "gcPBM binding intensity (ln)": "10.2 ± 0.17"}
{"sequence": "AAAATAAAAAAAATGTAAAAGGTTAAAGTGAAATAT [CACACA_negctrl_site350]", "gcPBM binding intensity (ln)": "9.81 ± 0.2"}
{"sequence": "ATATAAATGATATGTACACACATTTATATATATAAA [CACACA_site3475]", "gcPBM binding intensity (ln)": "11.4 ± 0.86"}
{"sequence": "TGATATTATCTCTTCACACACTCACATACAGACAAA [CACACA_site1246]", "gcPBM binding intensity (ln)": "10.2 ± 0.3"}
{"sequence": "CATATATACCTATATACACACATATAGATTTATATA [CACACA_site6451]", "gcPBM binding intensity (ln)": "9.74 ± 0.028"}
{"sequence": "TTATTCTACATATATGCATGTGTATGATCTGTTTAT [TGCATGCA_site782]", "gcPBM binding intensity (ln)": "9.945 ± 0.092"}
{"sequence": "TAAATTGAAATATATTGTACATTATCAACTAAGGGA [XGTACX_site1635]", "gcPBM binding intensity (ln)": "10.8 ± 0.54"}
{"sequence": "CTCAACATATACGTAACACACATATAAATATAAATA [CACACA_site7749]", "gcPBM binding intensity (ln)": "10.2 ± 0.35"}
{"sequence": "AAATTATAAAATAACTGTACCAATCCTTTTTTTTTA [XGTACX_site2229]", "gcPBM binding intensity (ln)": "10.8 ± 0.42"}
{"sequence": "TAAAAATTAAAATGTTGTACAATGATAAAATATTAT [XGTACX_site7874]", "gcPBM binding intensity (ln)": "11.3 ± 0.75"}
{"sequence": "ATTTATTTATATACAAGTACATAAAAAATTAACTTA [XGTACX_site6170]", "gcPBM binding intensity (ln)": "11.2 ± 1"}
{"sequence": "TATTTGATAAAAAAAAGTACTAGAATTTCGCTTTTG [XGTACX_site7754]", "gcPBM binding intensity (ln)": "11.1 ± 0.7"}
{"sequence": "ACAAATGTGAGAAAGACACACATATAATAAAAAACA [CACACA_site1156]", "gcPBM binding intensity (ln)": "10.1 ± 0.18"}
{"sequence": "AATAAAATTTGCGATGCACACAGAATAGCTAATATG [CACACA_site8983]", "gcPBM binding intensity (ln)": "10.045 ± 0.007"}
{"sequence": "CATATAGATTTGTTCACACACACACTAAAAAAAAAA [CACACA_site7212]", "gcPBM binding intensity (ln)": "10.3 ± 0.34"}
{"sequence": "ATATTCAATTCATACACACACAATTTAAGAATGATA [CACACA_site3883]", "gcPBM binding intensity (ln)": "9.765 ± 0.049"}
{"sequence": "TACATATTTACTATCACACACACGATATAAATAAAT [CACACA_site6701]", "gcPBM binding intensity (ln)": "10 ± 0.14"}
{"sequence": "TATATTTAATTATTTTGTACTCATATAAAGATGATG [XGTACX_site5488]", "gcPBM binding intensity (ln)": "11.2 ± 0.69"}
{"sequence": "AAAAAAAAAATATTTGAACACACGAGGATATATAAA [CACACA_site139]", "gcPBM binding intensity (ln)": "10.09 ± 0.014"}
{"sequence": "TACAGACATACATACACACATACATACAGACATACA [CACACA_site1941]", "gcPBM binding intensity (ln)": "10.1 ± 0.3"}
{"sequence": "CACACGCACGAACACACACACACACGCACGCACATA [CACACA_site6305]", "gcPBM binding intensity (ln)": "10.6 ± 0.42"}
{"sequence": "AAAATAATATAAATAATATAAGTGAGCATATATATA [TGCATGCA_negctrl_site527]", "gcPBM binding intensity (ln)": "9.67 ± 0.057"}
{"sequence": "TGTCTTGTAAATTATTGTACTATTTAAAGTATAAAA [XGTACX_site7863]", "gcPBM binding intensity (ln)": "11.2 ± 0.79"}
{"sequence": "ATGAATAAAAAAGGTGGTACATATATATATATATAT [XGTACX_site7893]", "gcPBM binding intensity (ln)": "11.4 ± 0.88"}
{"sequence": "ATACATATATAATTATGTACGTATATTTTATATAAC [XGTACX_site4292]", "gcPBM binding intensity (ln)": "11.6 ± 0.91"}
{"sequence": "ACCAAAAGGGGATGTAGTACAATATGATTAGAAGAA [XGTACX_site3773]", "gcPBM binding intensity (ln)": "11.4 ± 0.69"}
{"sequence": "ATAATCTGACAAATGTGTACACATATATATATATAT [XGTACX_site2379]", "gcPBM binding intensity (ln)": "11.6 ± 0.97"}
{"sequence": "AAATAATATATTCCTTGTACTTATTTCAATGAATTC [XGTACX_site7719]", "gcPBM binding intensity (ln)": "11.2 ± 0.98"}
{"sequence": "GATGATTCAATTTATGCACACTAAAAATTAATTATA [CACACA_site4308]", "gcPBM binding intensity (ln)": "10.2 ± 0.21"}
{"sequence": "CCATAGATATTTTATACACACATATAATATATTAAT [CACACA_site373]", "gcPBM binding intensity (ln)": "9.955 ± 0.064"}
{"sequence": "AAAATACCCGGACACACACACATATATATATATATT [CACACA_site6137]", "gcPBM binding intensity (ln)": "10.9 ± 0.61"}
{"sequence": "TAACTTCAAACAAAATATGGTAAAAGTGGTTGAAAA [CACACA_negctrl_site42]", "gcPBM binding intensity (ln)": "10.1 ± 0.14"}
{"sequence": "TATCACAAAATATACTGTACATACAGGCAGTAATAT [XGTACX_site2487]", "gcPBM binding intensity (ln)": "11.2 ± 0.8"}
{"sequence": "TTATAAAACCATGTCATCAACATAGGCACAAAAATG [CACACA_negctrl_site1160]", "gcPBM binding intensity (ln)": "10.3 ± 0.28"}
{"sequence": "TAATTTGTTAAAGGTTCACATATGGTATATACTTCT [XGTACX_negctrl_site292]", "gcPBM binding intensity (ln)": "10.17 ± 0.042"}
{"sequence": "TAATAAGGTTACAACAAACACACAAAGGAATATACA [CACACA_site4089]", "gcPBM binding intensity (ln)": "10.3 ± 0.15"}
